The values that follow come from PMC4336329 (PLoS ONE, 2015).

The structures appear in SMILES notation. The whole screen tested about 310,000 compounds, of which about 14,000 (4.5%) showed an effect of 50% or more. The effect is printed as a negative number. Some of the results follow.
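Note: peak tail current of the secondary pulse compared with the same well before compound.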

The target in the test is human ether-à-go-go-related gene (hERG) potassium channel (human, UniProt Q12809). Put plainly: primary screen, population patch clamp on CHO cells stably expressing hERG.
Chain of human ether-à-go-go-related gene (hERG) potassium channel (Q12809 whole entry, looked up): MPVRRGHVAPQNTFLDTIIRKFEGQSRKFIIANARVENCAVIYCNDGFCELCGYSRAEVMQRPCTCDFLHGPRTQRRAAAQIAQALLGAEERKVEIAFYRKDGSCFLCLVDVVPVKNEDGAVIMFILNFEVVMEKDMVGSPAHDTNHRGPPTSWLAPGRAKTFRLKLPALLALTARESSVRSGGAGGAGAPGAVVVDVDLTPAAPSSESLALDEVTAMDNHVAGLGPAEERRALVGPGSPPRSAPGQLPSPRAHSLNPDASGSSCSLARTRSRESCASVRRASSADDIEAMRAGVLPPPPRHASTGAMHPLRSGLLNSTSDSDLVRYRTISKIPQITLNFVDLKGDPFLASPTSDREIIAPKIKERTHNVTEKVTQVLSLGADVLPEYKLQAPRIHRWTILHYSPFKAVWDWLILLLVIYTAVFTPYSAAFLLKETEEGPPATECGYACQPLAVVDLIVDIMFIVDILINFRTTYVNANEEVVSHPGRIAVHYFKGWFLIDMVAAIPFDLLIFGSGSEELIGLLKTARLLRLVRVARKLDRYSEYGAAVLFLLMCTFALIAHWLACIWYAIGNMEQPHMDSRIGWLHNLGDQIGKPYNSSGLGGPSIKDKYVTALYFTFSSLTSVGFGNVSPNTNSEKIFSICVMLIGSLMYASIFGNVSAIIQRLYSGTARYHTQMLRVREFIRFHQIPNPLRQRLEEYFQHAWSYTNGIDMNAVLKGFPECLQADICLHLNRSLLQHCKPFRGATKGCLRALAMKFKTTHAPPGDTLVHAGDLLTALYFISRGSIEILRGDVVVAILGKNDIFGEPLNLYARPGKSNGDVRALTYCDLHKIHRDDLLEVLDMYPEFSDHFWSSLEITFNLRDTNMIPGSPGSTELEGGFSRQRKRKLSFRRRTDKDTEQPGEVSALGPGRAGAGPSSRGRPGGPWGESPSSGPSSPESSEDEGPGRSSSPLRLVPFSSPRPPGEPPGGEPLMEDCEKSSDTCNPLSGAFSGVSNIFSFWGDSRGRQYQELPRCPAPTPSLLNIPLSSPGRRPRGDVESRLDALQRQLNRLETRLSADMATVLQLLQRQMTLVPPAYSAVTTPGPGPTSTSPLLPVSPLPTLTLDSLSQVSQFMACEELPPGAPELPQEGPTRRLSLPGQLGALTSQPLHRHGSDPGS
With `O=C(/C=C/c1ccccc1[N+](=O)[O-])Oc1ccccc1`, the “hERG current change (%, negative = inhibition) at 10uM” value was 7.19%.

In the case of `Nc1nc(NCCc2ccccc2)nc(NCCO)c1[N+](=O)[O-]`, the “hERG current change (%, negative = inhibition) at 10uM” value is -14.9%.

For the compound `CC(C)=CCC12Oc3cc(O)ccc3C1(O)Oc1cc3c(c(O)c1C2=O)C=CC(C)(C)O3` (centres unmarked), the “hERG current change (%, negative = inhibition) at 10uM” value was determined as 15.2%.

Take `CCCCCn1c(CCNC(=O)c2cccs2)nc2ccccc21`: the “hERG current change (%, negative = inhibition) at 10uM” value is reported as -52.5%.

Consider `O=C(O)C1C2C=CC(C2)C1C(=O)Nc1ccc(Cl)c(Cl)c1` (centres unmarked), for which the “hERG current change (%, negative = inhibition) at 10uM” value is reported as -0.372%.

`CCOc1ccc(NC(=O)N(Cc2ccc(C)cc2)Cc2ccccn2)cc1`: the “hERG current change (%, negative = inhibition) at 10uM” value is on record as -36.3%.

As for `Cc1cccc(N(C)S(=O)(=O)c2cccc3nsnc23)c1`, the “hERG current change (%, negative = inhibition) at 10uM” value is reported as -3.39%.

Turning to `COCCNC(=S)Nc1cc(S(=O)(=O)N2CCOCC2)ccc1N1CCCCC1`, the “hERG current change (%, negative = inhibition) at 10uM” value was -6.45%.

`Cc1ccc2nc(N3C(=O)C(O)=C(C(=O)c4ccco4)C3c3ccc(C)o3)sc2c1.O=C(O)C(=O)O` (centres unmarked): the “hERG current change (%, negative = inhibition) at 10uM” value stood at 1.65%.

Take `CCCCNC(=O)CN(Cc1ccco1)S(=O)(=O)c1ccc(C(C)=O)cc1`: the “hERG current change (%, negative = inhibition) at 10uM” value is -45.5%.

As for `Cc1cccc(NS(=O)(=O)c2ccc3c(c2)NC(=O)CC(=O)N3)c1`, the “hERG current change (%, negative = inhibition) at 10uM” value was 25.2%.

Consider `Cc1ccc(Cl)cc1N1CCN(C(c2cccnc2)c2nnnn2C2CCCCC2)CC1` (centres unmarked), for which the “hERG current change (%, negative = inhibition) at 10uM” value is listed as -2.86%.

As for `Cc1ccc(CNc2ccc(N3CCOCC3)c(Cl)c2)cc1`, the “hERG current change (%, negative = inhibition) at 10uM” value is reported as 4.55%.

As for `COc1cccc(CCNC(=O)CCCC(=O)c2ccccc2)c1`, the “hERG current change (%, negative = inhibition) at 10uM” value is listed as -4.6%.

For `O=C(N[C@H](Cc1cc(=O)[nH]c2ccccc12)C(=O)O)c1ccc(Cl)cc1`, the “hERG current change (%, negative = inhibition) at 10uM” value was found to be 10.9%.

`Cc1ccc(O)c(C(=O)c2cc(C#N)c(=O)n(Cc3ccccc3)c2)c1`: the “hERG current change (%, negative = inhibition) at 10uM” value was -5.43%.

Take `Oc1cccc2ccc[n+](CC(O)Cn3c4ccccc4c4ccccc43)c12.[Cl-]` (centres unmarked): the “hERG current change (%, negative = inhibition) at 10uM” value worked out at 5.74%.

Regarding `CCCc1cc(=O)oc2cc(C)cc(OCC(=O)NC3CCN(Cc4ccccc4)CC3)c12`, the “hERG current change (%, negative = inhibition) at 10uM” value is recorded as -10.3%.

On to `CN(Cc1ccccc1O)CC1CCCN(CCc2ccc(Cl)cc2)C1` (centres unmarked), for which the “hERG current change (%, negative = inhibition) at 10uM” value is -76.1%.

Take `CC(=O)Oc1c(C)cc(Cl)cc1C(=O)Nc1ccc([N+](=O)[O-])cc1Cl`: the “hERG current change (%, negative = inhibition) at 10uM” value is given as 21.9%.

Regarding `CCOC(=O)c1ccc(-n2cncn2)nc1`, the “hERG current change (%, negative = inhibition) at 10uM” value is reported as -5.08%.

Take `CCOC(=O)Cn1c2c(c(=N)c3c1CCC3)CCC2.Cl`: the “hERG current change (%, negative = inhibition) at 10uM” value is given as 8.34%.

In the case of `CC1CCCCN1C(=O)CSc1nc(N)nc(N)n1` (centres unmarked), the “hERG current change (%, negative = inhibition) at 10uM” value is given as 22.5%.

Turning to `O=C(COc1cccc(Oc2ccccc2)c1)Nc1ncccn1`, the “hERG current change (%, negative = inhibition) at 10uM” value is given as -3.9%.

As for `C/C(=C\c1ccccc1)C(=O)NCc1ccco1`, the “hERG current change (%, negative = inhibition) at 10uM” value was 20.7%.

For the compound `CCOC(=O)CC1(c2ccc(OC)c(OC)c2)C(=O)c2ccccc2C1=O`, the “hERG current change (%, negative = inhibition) at 10uM” value is -1.97%.

In the case of `CCc1ccc(-c2csc(NC(=O)C3CCCO3)c2C(=O)OC(C)C)cc1` (centres unmarked), the “hERG current change (%, negative = inhibition) at 10uM” value came to 11.2%.

As to `CC(=O)N1CC2([N+](=O)[O-])CN(C(C)=O)CC([N+](=O)[O-])(C1)C2(C)C`, the “hERG current change (%, negative = inhibition) at 10uM” value was determined as 26.9%.

Turning to `CCN1CCN(Cc2ccc(NC(=O)c3cc(NC(=O)N4CCNC4=O)cc(OC)c3)cc2C(F)(F)F)CC1`, the “hERG current change (%, negative = inhibition) at 10uM” value is on record as -9.24%.

`Nc1ccc(-n2nc3ccccc3n2)cc1`: the “hERG current change (%, negative = inhibition) at 10uM” value was determined as 6.34%.

`CS(=O)(=O)c1ccc(NC(=O)c2ccc3c(c2)S(=O)(=O)N=C2CCCCCN23)cc1`: the “hERG current change (%, negative = inhibition) at 10uM” value is reported as 1.4%.

Regarding `CSc1nnc(NC(=O)c2cc(=O)c3cc(C)cc(C)c3o2)s1`, the “hERG current change (%, negative = inhibition) at 10uM” value was found to be 23.2%.

As for `Nn1cnc2scc(-c3ccco3)c2c1=O`, the “hERG current change (%, negative = inhibition) at 10uM” value was 18.3%.

Take `c1ccc2c(CN3CCCCCCC3)c[nH]c2c1`: the “hERG current change (%, negative = inhibition) at 10uM” value is -22.4%.

As for `Cc1ccc(S(=O)(=O)NCC(=O)N(CC(=O)NCc2ccco2)Cc2ccc3c(c2)OCO3)cc1`, the “hERG current change (%, negative = inhibition) at 10uM” value is listed as -16.2%.

In the case of `O=S(=O)(c1ccc(NC(=S)NCCC(c2ccccc2)c2ccccc2)cc1)N1CCOCC1`, the “hERG current change (%, negative = inhibition) at 10uM” value stood at 10.2%.

Take `CC1Cc2cccc3c(O)c(C(=O)c4nn[nH]n4)c(=O)n1c23` (centres unmarked): the “hERG current change (%, negative = inhibition) at 10uM” value is listed as 15.4%.

For the compound `CCOC(=O)N1CCC(NC(=O)CSc2cc(=O)n(C)c3ccccc23)CC1`, the “hERG current change (%, negative = inhibition) at 10uM” value is -13.7%.

As to `CC1CCCCN1S(=O)(=O)c1ccc(S(=O)(=O)N(Cc2ccccc2)Cc2ccco2)cc1` (centres unmarked), the “hERG current change (%, negative = inhibition) at 10uM” value is -1.48%.

Take `Cc1cc(Nc2ccc(F)cc2C)n2nc(C)nc2n1`: the “hERG current change (%, negative = inhibition) at 10uM” value is reported as -2.17%.

Turning to `COCCCN1C(=O)C(O)=C(C(C)=O)C1c1ccccn1.Cl` (centres unmarked), the “hERG current change (%, negative = inhibition) at 10uM” value is recorded as 3.25%.

`CC(=O)Nc1ccc([N+](=O)[O-])cn1`: the “hERG current change (%, negative = inhibition) at 10uM” value came out at 24.4%.

As for `Cc1nnc(SCC(=O)Nc2sc3c(c2C(N)=O)CCCC3)[nH]c1=O`, the “hERG current change (%, negative = inhibition) at 10uM” value amounted to 6.78%.

In the case of `N#Cc1cc(-c2ccccc2)nnc1Sc1ccc(Cl)cc1`, the “hERG current change (%, negative = inhibition) at 10uM” value is -3.12%.
